The supplement of paper PMC3334620
In all, about 33,000 sequences were measured (“E-score (-0.5 to 0.5)”: median about -0.012, highest 2% from about 0.29 on). Some of the results follow.

Target: T1, Ybr033w (UniProt P38073)
T1 sequence: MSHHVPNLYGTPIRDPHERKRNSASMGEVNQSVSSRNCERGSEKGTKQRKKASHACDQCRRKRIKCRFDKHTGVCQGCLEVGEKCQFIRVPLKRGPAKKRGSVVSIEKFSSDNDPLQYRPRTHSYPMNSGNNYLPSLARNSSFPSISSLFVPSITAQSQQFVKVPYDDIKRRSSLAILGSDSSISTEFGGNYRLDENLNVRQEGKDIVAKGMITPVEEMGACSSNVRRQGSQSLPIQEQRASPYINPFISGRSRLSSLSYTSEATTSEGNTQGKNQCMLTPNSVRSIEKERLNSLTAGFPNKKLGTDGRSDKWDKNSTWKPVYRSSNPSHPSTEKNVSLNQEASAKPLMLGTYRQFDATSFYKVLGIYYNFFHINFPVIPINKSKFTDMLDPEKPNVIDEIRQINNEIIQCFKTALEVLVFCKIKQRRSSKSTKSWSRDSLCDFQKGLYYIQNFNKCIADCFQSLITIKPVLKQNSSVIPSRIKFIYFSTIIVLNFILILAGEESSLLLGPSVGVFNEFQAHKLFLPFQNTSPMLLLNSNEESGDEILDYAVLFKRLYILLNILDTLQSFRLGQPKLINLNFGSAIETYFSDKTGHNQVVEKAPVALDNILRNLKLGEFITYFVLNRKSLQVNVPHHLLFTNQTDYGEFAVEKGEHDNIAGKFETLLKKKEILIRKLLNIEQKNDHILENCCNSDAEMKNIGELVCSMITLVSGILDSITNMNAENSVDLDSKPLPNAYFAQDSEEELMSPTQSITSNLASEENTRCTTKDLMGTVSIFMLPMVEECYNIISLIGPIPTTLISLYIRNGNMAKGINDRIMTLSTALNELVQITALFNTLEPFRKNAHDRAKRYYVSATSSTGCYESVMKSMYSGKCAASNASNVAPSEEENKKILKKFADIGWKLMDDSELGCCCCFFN
Assay: PBM E-score (8-mer binding enrichment) (E-score (-0.5 to 0.5)); higher = stronger / more preferred TF binding; most listed sequences are background and not binding sites
Details: protein concentration: 200 nM; construct: GST-full length
Outline: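 Each ungapped eight-base word and its reverse complement, pooled, received an E-score from the Universal PBM Analysis Suite. Underlying scans, normalised with masliner, recorded fluorescent anti-GST bound to GST-tagged yeast transcription factors. These were applied at about 100-200 nM to universal all-10-mer Agilent arrays double-stranded by primer extension.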

Sequence	PBM E-score
GAGTGAAC	-0.0174
CAGAAGCC	-0.125
TATCGCAA	0.245
CTTGCTGC	-0.0279
CGTTCAAC	0.067
GATGCAAC	-0.0518
TTAAGGAA	0.218
CTAGATCA	0.00896
ACCGTGAG	-0.181
AGGAAAGG	-0.215
ACACGAAG	0.108
CCTAACAG	0.0161
TCGCCTAA	-0.0224
GCTTATTA	0.0754
CATGGCTA	0.0397
ACGTTATG	0.115
AGCTCATC	-0.205
AACTCGAA	-0.085
CGCAGTAC	-0.0569
GACGGGCA	-0.305
AAACTAGT	0.136
GATTCCGA	0.129

Sequence	PBM E-score
CGCTCTTC	-0.0286
AAAGATTA	0.203
ATGAGCGC	0.0495
GGACAGAA	-0.0539
CATCCCGC	-0.173
ACTCGCCG	0.0687
CAGACTCA	-0.0754
GTACACCA	-0.0592
AGCCGCGA	-0.188
ATACGAGG	-0.0951
CGTCGCGC	-0.00948
GGACGATA	0.0598
GCCAATAC	-0.106
AATCAGGA	-0.0223
AGCTGCCC	-0.15
AGCGTAGA	-0.102
ATAAGTGA	0.111
ACAACGGA	0.186
ATCACATG	0.0416
GACCCGCC	-0.188
CTGATCCC	-0.291
CTACATAG	0.0985

Sequence	PBM E-score
CCCCTCGG	-0.34
AGATGGCT	-0.132
AAGCTCAC	-0.0473
ATTCATTG	0.181
GCTTGCGA	0.0983
ACCACGAC	-0.00188
CCCGAACG	-0.161
CAAAATGG	0.184
AGCGCTTC	0.016
ACCCGGGT	-0.239
CACTTGGG	-0.0516
TAACGGAA	0.153
ACGGGACC	-0.24
CTCGAGGA	-0.147
ACATGGTG	0.119
AAGAGCAT	-0.0303
AGTATCAG	0.0699
ATGGCAAG	-0.0226
AAATGTTC	0.346
AACCCATG	-0.0578
ATTCCGCA	0.00897
CTTTGAGA	0.203

Sequence	PBM E-score
CGTTACGC	-0.0649
TGCCACAA	0.0612
CAACATTC	-0.148
CCCCCTTC	-0.43
CTAAAAGC	-0.217
ACTTGCTC	0.00803
CATTCACA	0.179
CTCTTCTC	-0.149
CCCAGGCG	-0.141
ACCATAAT	0.154
CATGTTTA	0.154
ACCTGTTC	0.0242
AAAGACAA	0.215
AACGGTTC	-0.0588
CACAGTGA	0.0752
CATGTGGG	-0.0644
GTCAGTTA	-0.00637
ACACCATC	0.0756
AGCACAAT	0.0444
GTAATAAA	0.198
